# According to the supplement of paper PMC3334620:
# The full ranking holds about 33,000 sequences; the median of “E-score (-0.5 to 0.5)” is about -0.036, and the highest 2% start at about 0.37. The list shows a part of the results.
# Target: T1, Yer064c (UniProt P40041)
# T1 sequence: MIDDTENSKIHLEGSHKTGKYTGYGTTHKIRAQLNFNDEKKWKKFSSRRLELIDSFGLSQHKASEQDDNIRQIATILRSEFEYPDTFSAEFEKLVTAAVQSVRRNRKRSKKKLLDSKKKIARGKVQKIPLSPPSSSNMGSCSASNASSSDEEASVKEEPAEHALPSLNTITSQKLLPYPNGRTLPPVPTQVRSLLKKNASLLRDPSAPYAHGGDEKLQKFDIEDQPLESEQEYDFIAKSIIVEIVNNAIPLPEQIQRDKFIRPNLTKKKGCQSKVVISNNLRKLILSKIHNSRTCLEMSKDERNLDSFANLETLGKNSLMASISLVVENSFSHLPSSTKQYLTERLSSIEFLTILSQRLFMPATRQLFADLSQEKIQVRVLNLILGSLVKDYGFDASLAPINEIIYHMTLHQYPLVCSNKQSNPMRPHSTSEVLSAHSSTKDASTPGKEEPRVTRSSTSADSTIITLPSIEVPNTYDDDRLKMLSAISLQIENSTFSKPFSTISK
# Assay: PBM E-score (8-mer binding enrichment) (E-score (-0.5 to 0.5)); higher = stronger / more preferred TF binding; most listed sequences are background and not binding sites
# Conditions: protein concentration: 200 nM; construct: GST-full length
# Procedure, shortened: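 Yeast transcription factors carrying a GST tag, as full-length proteins or DNA-binding domains, were produced by PURExpress in vitro transcription/translation. About 100-200 nM protein was applied to universal all-10-mer Agilent arrays, double-stranded by primer extension on fresh or once-stripped slides. Bound protein was detected with fluorescent anti-GST, and scans were normalised with masliner. The Universal PBM Analysis Suite gave each ungapped eight-base word, pooled with its reverse complement, an E-score, a modified Wilcoxon-Mann-Whitney statistic.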
row,Sequence,PBM E-score
1,GCCCGAGA,0.0244
2,CCAAGCAC,0.00908
3,AGGACGTA,-0.18
4,GGTCGGAA,-0.23
5,CAGTCAAC,0.36
6,AAAACAGG,-0.126
7,ATGCACAG,-0.0936
8,AGACAACC,-0.0476
9,AATGTCAA,-0.156
10,AGCCTGAG,0.0654
11,CAGTTTTC,-0.0706
12,CATTAAGA,-0.0756
13,TATGCAGA,0.201
14,ACATAAAG,0.0797
15,AGCAGCCC,-0.23
16,GGGCTCTA,-0.0583
17,CCCATCGA,0.056
18,ACAGGTTC,-0.0525
19,CGATACCG,-0.131
20,AAGTAGGA,0.0206
21,ACTTGCTA,-0.0122
22,CGATATGA,0.0754
23,GTAAGTGA,0.131
24,AATTGCTA,-0.154
25,CTCCTCCC,-0.183

row,Sequence,PBM E-score
1,CCTTACGC,-0.117
2,ACCCCCGT,-0.271
3,CATATTAC,0.0585
4,AATTACTA,0.159
5,GCTGAAAC,0.13
6,AAGATACG,-0.0653
7,CGCATAAG,-0.0988
8,CATACTCC,0.0254
9,AGTTGCTG,-0.0363
10,AGACTCGC,0.336
11,ACGGGGCA,-0.215
12,AATGCTGG,-0.117
13,AAACCAAG,0.0139
14,ATTCTGGG,0.0516
15,CCCGCGGA,-0.204
16,ATGAGTCG,0.474
17,GACAGCTA,-0.168
18,ATACAGGC,-0.351
19,CCTGCAAC,-0.0909
20,ATTAAATA,0.148
21,AGATGTAC,-0.161
22,ATTATCAG,0.169
23,CGATGAGA,0.0402
24,AGGGTAAC,-0.157
25,CCTATGTA,-0.0493

row,Sequence,PBM E-score
1,GTATAGAC,0.13
2,AGCAGGTA,-0.131
3,CGGCGCTA,0.0185
4,ACCAAGGC,-0.113
5,CGCAAACG,-0.0502
6,CAAACCGG,-0.0378
7,GCAGATGA,0.0855
8,ATAGTCAC,0.481
9,AGTGTCCG,-0.187
10,AGGATATC,-0.186
11,GCTCTGAA,-0.138
12,ATCCGGGA,-0.104
13,ACGGTAAC,0.0774
14,AAGGTCCC,-0.0918
15,CAGACCGA,-0.0945
16,CTTGATCA,0.0673
17,GCCACAAA,-0.0925
18,ACGAATCT,0.123
19,CGATTCAA,0.269
20,ATCACACC,0.181
21,CATGTGGA,0.058
22,GGGCTCAC,-0.0905
23,AGACGAAC,0.0394
24,ACCAGGTC,-0.118
25,CTCTACAC,-0.093

row,Sequence,PBM E-score
1,CAGGACAA,0.00705
2,GAAAATCA,0.261
3,CCGTACGA,-0.0292
4,CCGGCCGC,-0.109
5,AGTCATGC,0.487
6,CCCACGTA,-0.0556
7,CTTCACCA,-0.174
8,AGGAAATA,0.113
9,ACACTCAG,0.0179
10,ATTTTGGA,0.0812
11,CACTTCCC,-0.141
12,AATTGTAT,-0.131
13,ACAGTGTC,-0.197
14,TGTCAAAA,0.0558
15,CTGAAATC,0.127
16,CTCTAGGA,0.0144
17,AAAAAAGG,0.108
18,AGGAATCA,0.429
19,AGCCCTGA,0.0478
20,GGCCCGTA,-0.259
21,ACTGAATC,0.361
22,GAGTCGTA,0.453
23,CCTTTGCG,-0.2
24,AATTCTAT,-0.0536
25,GTTGTGTA,0.00511

row,Sequence,PBM E-score
1,CAAGAAAG,0.0812
2,CTTGTATA,0.147
3,CCACCCCC,-0.286
4,TCTAACAA,-0.00355
5,TCCCGGCA,-0.207
6,CCAATCAC,0.182
7,AGGAACCA,-0.0565
8,GTCTGTGA,0.252
9,AGTACTGC,-0.053
10,ATGTGCTG,0.0265
11,ACACGGCT,0.0212
12,ATACCAAC,-0.0594
13,AATTGCTG,-0.134
14,CATACGCG,-0.0256
15,GCCATGAA,-0.0661
16,GGAGACGA,-0.119
17,CCCTTGCA,-0.253
18,GTCAGACA,0.271
19,ATGCGGCC,-0.108
20,TAACCCCA,-0.0748
21,GCATCGAC,-0.0987
22,CGGCCACC,-0.219
23,CCAATGAC,0.271
24,CCAGGCGA,-0.104
25,ATCAGCTG,0.203

row,Sequence,PBM E-score
1,GATCGTTA,-0.0132
2,AGGACACA,0.0147
3,GATGACGA,0.0355
4,TCCTAAAA,0.0567
5,CACCAGAA,-0.168
6,CTTCCGAA,-0.117
7,CATTCCAA,-0.0809
8,CGCCAGAA,-0.04
9,AAGCTCCA,-0.105
10,ACCGGCCC,-0.205
11,CTAGAAGA,0.19
12,TTAGGAAA,-0.143
13,GCGGTCGA,-0.0541
14,CGGGTATC,-0.204
15,TGGGGCAA,-0.35
16,AGGAATAC,-0.0993
17,CATAAAGC,0.0324
18,ATACACAG,0.109
19,GGGTTATA,0.0263
20,ATATTTAG,0.228
21,GATCCGGA,-0.112
22,AATTTCGC,-0.141
23,ATACGGCG,-0.138
24,ATAGCATC,-0.0406
25,GACACCTC,-0.118

row,Sequence,PBM E-score
1,CACTCTTA,-0.016
2,CTTGAAAC,-0.0405
3,ACTCCAGA,0.151
4,GCCCGGGC,-0.107
5,GCGTGTCA,0.112
6,AGAACGAT,0.0607
7,ACTAGTAG,0.164
8,CTTCGACA,0.112
9,ATGCGCAC,-0.301
10,CGGAATAC,-0.112
11,CATCCTAG,0.0362
12,AGGAAGAG,0.0156
13,AGGTCTCA,0.176
14,ATCGTACA,0.0975
15,ACACTCTA,0.00264
16,TCCTCACA,0.0653
17,TACTAAAA,-0.00832
18,ACGGAGAG,-0.107
19,ACCCGTCT,-0.124
20,AAATGTCA,-0.0301
21,GAGAGTGA,0.195
22,CCGAACGA,-0.0321
